We go through 45 sequences from the supplement of paper PMC11417369.

± gives the standard deviation of the averaged measurements. The list shows a part of the results.

This test relates to PfAP2-LT AP2 domain (GST-tagged). Briefly: gcPBM binding intensity (ln(normalized median fluorescence intensity)); higher = stronger DNA binding. The gist of the method: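 The binding buffer was 1× PBS containing 1% milk, 0.2 mg/ml BSA, 0.5% salmon testes DNA and 0.03% Triton X-100. In it, GST-tagged P. falciparum DNA-binding domains expressed in E. coli were applied for 1 h to an Agilent 4 × 180k array of primer-extended double-stranded 36-bp intergenic genomic probes plus negative controls. Binding intensity, read with Alexa488 anti-GST antibody and a 488 nm scan, is the highest Masliner-normalised natural-log median intensity across replicate spots of either probe orientation.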
Consider “CAATCTTTTACGAATACACACACATAAAGAAAAAAA [CACACA_site8367]”, for which the “gcPBM binding intensity (ln)” value stood at 9.17 ± 0.37.
Turning to “TTAAATAAATAAAAATGTACATGCATATATAAATAT [XGTACX_site8908]”, the “gcPBM binding intensity (ln)” value came out at 8.9 ± 0.41.
Take “AATTTTTTATATGTCACACATTTGTTATTATTATTA [CACACA_site4197]”: the “gcPBM binding intensity (ln)” value stood at 8.89 ± 0.42.
With “ATAAAAATGTATATATGTACATATATATATATATAT [XGTACX_site1505]”, the “gcPBM binding intensity (ln)” value is 9.76 ± 0.3.
The result for “TTTTTTTTTTTTAATACACACATATATATATTTATT [CACACA_site3994]” reads 8.85 ± 0.44; that for “GTAAAAAAAAAAAAATGTACACATATATATAATATA [XGTACX_site159]”, 8.62 ± 0.56; that for “AACATAATTAAAAATTGTACAGAATTTCAATCGAAA [XGTACX_site7542]”, 8.56 ± 0.59.
For “GGGAAAGAACCATATACATGCATATTTACCGTTAAA [TGCATGCA_site519]” the value was 8.85 ± 0.35; for “CATATACATACACATACACACATACAGACATACACA [CACACA_site6919]”, 9.63 ± 0.2.
On to TGAAATTTTATTAATGTGCACATATATTTATTGTTC, for which the “gcPBM binding intensity (ln)” value is 8.94 ± 0.4.
As to “CTTTTTAATTAATACACACACACACCCATATATATA [CACACA_site2292]”, the “gcPBM binding intensity (ln)” value turned out to be 9.86 ± 0.37.
Turning to “ATCACTTGAGAATAATTACATTAATATATATTTATG [TGCATGCA_negctrl_site581]”, the “gcPBM binding intensity (ln)” value was found to be 8.53 ± 0.45.
“ATATTATCCCTATTTGCACACAAGAGTAATTTTTTA [CACACA_site3908]”: the “gcPBM binding intensity (ln)” value amounted to 9.04 ± 0.4.
The result for “TTTCTTTCTATTGTTATATTTATAATAATTATAATT [XGTACX_negctrl_site215]” reads 8.6 ± 0.57.
Regarding “TGTTTAAGTGTTTTTAGTACTTATAAAAATATTATC [XGTACX_site7379]”, the “gcPBM binding intensity (ln)” value turned out to be 8.38 ± 0.5.
For “TATAAAATTACATTTTGTCATTTATTTTTTCCCACT [TGCATGCA_negctrl_site110]” the value was 8.54 ± 0.63.
For “TTATTATATATAAGTAGTACAAACAATTAAGAGATA [XGTACX_site4009]” the value was 8.82 ± 0.45; for “TGATGATATAAAAACACACACATATAACATAATACT [CACACA_site6687]”, 9.49 ± 0.33.
Consider “ATTGTCTTTTAATAGTGTACTTATTTTAAATATTGC [XGTACX_site8517]”, for which the “gcPBM binding intensity (ln)” value is 8.83 ± 0.45.
Consider TTTCTAATATATAAAGTGCAATACCATTCAGAGTTA, for which the “gcPBM binding intensity (ln)” value was determined as 8.54 ± 0.45.
Take “ATATGGAAGAATTAAAGTACTTAAAAAAATGTCAGT [XGTACX_site6837]”: the “gcPBM binding intensity (ln)” value worked out at 8.91 ± 0.45.
Turning to “TTTTATAGAGTGTATACATGCAATACCACATAAAAT [TGCATGCA_site476]”, the “gcPBM binding intensity (ln)” value is 8.79 ± 0.43.
On to TATAATTTATAAGTAGTGCATTTCTTTTCATTTTTA, for which the “gcPBM binding intensity (ln)” value stood at 8.55 ± 0.48.
As to “AAGAAAATAAAATAAAATAAAATAAAATAAAAATAT [TGCATGCA_negctrl_site493]”, the “gcPBM binding intensity (ln)” value turned out to be 8.8 ± 0.49.
As to “AAAGAAGAAAAATATAGTACAGGGCACATGTCCTGT [XGTACX_site6293]”, the “gcPBM binding intensity (ln)” value came out at 8.62 ± 0.54.
The result for “AAAAAAAAAAAAATTGCATGTAAATGAAATAATAAA [TGCATGCA_site116]” reads 8.54 ± 0.52; that for “TTATTTTTATATTTCACACACATATACTTTTACATA [CACACA_site4097]”, 9.24 ± 0.47; that for “ATTTAAATTTAAAAAACACACATAATATGATATATA [CACACA_site1973]”, 8.69 ± 0.47.
For “TATTGTAGTCATGCACGTACAAAAGGAAAGTTAAAA [XGTACX_site4446]”, the “gcPBM binding intensity (ln)” value is 8.82 ± 0.42.
Consider “AAATAAAATATTACATGTACATGTTCATAAAAAAAA [XGTACX_site1067]”, for which the “gcPBM binding intensity (ln)” value was 8.7 ± 0.51.
Take “ATAAATTAATGGAGAAATCTTATGAATTTATTTTAA [CACACA_negctrl_site1068]”: the “gcPBM binding intensity (ln)” value came out at 8.3 ± 0.52.
With “AATAAAAAGGAACACACACACACACCGATATATATA [CACACA_site5895]”, the “gcPBM binding intensity (ln)” value was found to be 10.08 ± 0.085.
As to “TACATACACAGACACACACACATATATATATATATA [CACACA_site3557]”, the “gcPBM binding intensity (ln)” value was 10.1 ± 0.19.
Regarding “TAAATATAAGTGTACATACACACTTTACAATCTCAT [CACACA_site3006]”, the “gcPBM binding intensity (ln)” value was 8.86 ± 0.45.
Turning to “AATATATACATATATACACACACATATATTATATAT [CACACA_site7980]”, the “gcPBM binding intensity (ln)” value came to 9.43 ± 0.35.
Take “TTATACGATAATATGACACACAATACAAAAATGTAA [CACACA_site1918]”: the “gcPBM binding intensity (ln)” value turned out to be 8.96 ± 0.42.
The result for “TGTTTCTAAAAATTTACACACAAAATATTTCTACAT [CACACA_site4098]” reads 8.98 ± 0.36; that for “CCTATAAAACCATATACACACATATATATAAAAAAA [CACACA_site4013]”, 9.11 ± 0.38.
Regarding “TGGGTATATATAAAAGGTACACAAAATGAAGATATA [XGTACX_site4994]”, the “gcPBM binding intensity (ln)” value came to 8.88 ± 0.6.
With “TAATTTCTTATGTATTGTACAAATAATATATTATAT [XGTACX_site1037]”, the “gcPBM binding intensity (ln)” value stood at 8.7 ± 0.44.
As to “TTTTCTGTGTTTTTGGGTACACACAAATAGCTTGTA [XGTACX_site8553]”, the “gcPBM binding intensity (ln)” value amounted to 9.12 ± 0.37.
Consider “TGATATTATATTGTGATGCACTTTAAAAATATAAAG [GTGCAC_site9509]”, for which the “gcPBM binding intensity (ln)” value came out at 8.39 ± 0.44.
Take “ATGGTTTAATTATATACACACTCGAAAATAACGACA [CACACA_site3258]”: the “gcPBM binding intensity (ln)” value is 8.74 ± 0.41.
In the case of “TTTTACAAATGTTTTACACACACATAATTGTATCAA [CACACA_site4166]”, the “gcPBM binding intensity (ln)” value was 9.19 ± 0.31.
Consider “AAAAAAAGGATGTACGTATCATAATTTTATTTTATA [CACACA_negctrl_site1543]”, for which the “gcPBM binding intensity (ln)” value was found to be 8.68 ± 0.59.
